Experimental data published in publication PMC12136788.
The other results are listed elsewhere or left out.

B1: chr14:55515796:55515797:+_ENSMUSG00000022194_ENSMUST00000116476|mus_hu|FALSE|FALSE (ssRNA)
RNA: GGGAGUUCUACAGUCCGACGAUCAAAUAGGGACUCAUCUAAGGCCAAGGAAGUCCUCACUGACUCUUUGUCUGAGAACUCUAUAUACGCAAACCCUUUGGGAUGGCCACUAAAUUUGUCACACAGUAUGGUAACACGGUUGACCAACAGAGGAUUGAGCAUCA
B2: chr14:90870231:90870232:+_ENSG00000198668_ENST00000553542|hu_mus|FALSE|FALSE (ssRNA)
RNA: GGGAGUUCUACAGUCCGACGAUCGCGGAUCUCUUCUUCGCUAUCUGUGUCUUUCAUUUUUCUAGCCAUCAUAGUCAAGAACUCUGGGAAGUCAAUGGUGCCAUUGCCAUCAGCAUCCACUUCGUUGAUCAUAUCCUGCAGCUCCAACAGAGGAUUGAGCAUCA
B3: chr18:13746249:13746250:+_ENSG00000101654_ENST00000262173|hu_hu|FALSE|FALSE (ssRNA)
RNA: GGGAGUUCUACAGUCCGACGAUCAUUUUCAUUGUUCUUAAUCUUUUCUUCGUAGAAUUCCAGAAAUGUUUUUUUGUAGACUAGUUUCAUAUUGUACUUCUUUGCCAUUUCAUUUAGCAAUGGAAAAUAGACCAAGAAUUCAGGCAACAGAGGAUUGAGCAUCA
B4: 65460615_65465888_1110_CDS_ENSG00000153914_ENST00000334121|human|control|control (ssRNA)
RNA: GGGAGUUCUACAGUCCGACGAUCGGAUCUACUCCUGUGUUUUGAUUGUGAUCUUUUCCUUCUAGAAUGGGAUUUUGAGCUAGACCUGGAUUUUGAGCGAGUAUGGGAACGAGAUCGACCGCCUUUUCUUUCAUUGCUCUUUCCCAACAGAGGAUUGAGCAUCA
B5: chr3:169712149:169712150:+_ENSG00000008952_ENST00000337002|hu_hu|FALSE|FALSE (ssRNA)
RNA: GGGAGUUCUACAGUCCGACGAUCUUAAUUCAAACACUUAGAUGAGAAACAGCCUAAAGCAAAGACUGACAUACACUACCUAUUUCAACCACAAAGCAAGAUGCUCUCACUGUGACUGAAGAAAAAUCAUUUAAUAUUCAUUAUCAACAGAGGAUUGAGCAUCA
B6: chr17:56552419:56552420:-_ENSMUSG00000013236_ENSMUST00000086828|mus_mus|mus_mus_mus_hu_False|58_108 (ssRNA)
RNA: GGGAGUUCUACAGUCCGACGAUCAAAGUUUUUUUCUUUUAAAAAAAAUGAAAUGUCACGGGAUACAGUUACACUGACACUAUUAAAAGAAAGCUGGAUUCUGGUCCCAGCCCAGUGUCCCCAGGCUGCAGAGCGGGGAGGAGCCAACAGAGGAUUGAGCAUCA
B7: chr2:202488911:202488912:-_ENSG00000155755_ENST00000286196|hu_mus|hu_hu_hu_mus_False|28_48 (ssRNA)
RNA: GGGAGUUCUACAGUCCGACGAUCAUUGAAACAUUUUUCAUAAUCUCCAGUAGCAUUUCAGCAUUAUGUAACAAAAGCUCAAUUGUAAAUACACAUGUCUUAUAAAAAUAAAAAUACAAACACGAGUGGGGAGCGCAGGCGCCACAACAGAGGAUUGAGCAUCA
B8: chr17:65740002:65740003:+_ENSG00000130935_ENST00000581375|hu_hu|hu_hu_hu_mus_False|68_78 (ssRNA)
RNA: GGGAGUUCUACAGUCCGACGAUCAACAAAUCUUUCUUCCCUGGACGAACAGGAAGACAUAAAAGAGCUUUAUAAAAUAUCCAUCAAGUUAGGUGUGGUGGCCACACCUUUACUCCCAGCACUUUGGGAGGUGGAUCUCUGAGUCAACAGAGGAUUGAGCAUCA
B9: chr8:38067834:38067835:+_ENSG00000156735_ENST00000287322|hu_hu|motif|central (ssRNA)
RNA: GGGAGUUCUACAGUCCGACGAUCCUUGGUUAGCAUUUCUUCCAGAAGCCAGUAUGCUUUGUCUGUCUUUUUUCCGGCAAAUUCUUCGGCUUCUUGUUCAAGAUACUGGACCUUCUCCAGCACAUGUAUGAUUUUUUUAAUACUCAACAGAGGAUUGAGCAUCA
B10: 99532797_99534492_1209_3pUTR_ENSMUSG00000041685_ENSMUST00000040340|mouse|control|control (ssRNA)
RNA: GGGAGUUCUACAGUCCGACGAUCCAUCAGGACAUUCCACAGAUUCUGCGUCCUUUUCCUUUUUAAUUAUUCCAGGCAAAGCAAAAGUCUUUCUUUUCCUUGGUUUUAUGCCUUCAACUGCACUAGCAGGGUCACACUCUUCAACAACAGAGGAUUGAGCAUCA
B11: chr2:151796264:151796265:-_ENSMUSG00000027459_ENSMUST00000062047|mus_hu|FALSE|FALSE (ssRNA)
RNA: GGGAGUUCUACAGUCCGACGAUCAGUGCGGCUGGCCUCGGCAGGGGACACGGGGCUGUCACACAAGUCGAUGAGGCUGCUGAGGAUGUCCAGGUCCAGCUGGGGCCGUCGGCAGGGGCCAGGCAGGGCUCGGCGGCUGGGCGUCAACAGAGGAUUGAGCAUCA
B12: chr11:88707168:88707169:-_ENSMUSG00000018428_ENSMUST00000018572|mus_mus|motif|central (ssRNA)
RNA: GGGAGUUCUACAGUCCGACGAUCAAGGGGAAGAGCGAACGCAACUGGAUUGCCAUCUUGGAGUCAGUCGAUGUGAAGUAGCGGCACCUGCUCCUGGGCGACCGUCUAGGCACUCAAUCCUCCCGCCACCGCCCCCUGGCCCCCCAACAGAGGAUUGAGCAUCA
B13: chr4:25749455:25749456:-_ENSG00000091490_ENST00000264868|hu_hu|hu_hu_hu_mus_False|8_38 (ssRNA)
RNA: GGGAGUUCUACAGUCCGACGAUCGCACUAUGACCUCUAGAAAAAUCCACAGGGGGAAAAAAUGUAAACCAAUGUACAAUGUUAUCGCCUUCCCUGUAUUUCCAGGCUUUGUCUCAAGGCUCCUUCUUGCCUUAUAAUUUGGGACAACAGAGGAUUGAGCAUCA
B14: chr2:48035047:48035048:-_ENSG00000138081_ENST00000403359|hu_hu|FALSE|FALSE (ssRNA)
RNA: GGGAGUUCUACAGUCCGACGAUCACAAAAUUGCAGCUUAUUUUCUUCACUUCUGUCCCUUCAAGUCUUUACACAGUAAUGCUAAAACACCCAGCUUUGAGAUCCUGAGUCAAUAUAUUGCCACUUUCUUUUUGGUAGCUUGAGCAACAGAGGAUUGAGCAUCA
B15: chr2:47635579:47635580:+_ENSG00000095002_ENST00000543555|hu_mus|motif|central (ssRNA)
RNA: GGGAGUUCUACAGUCCGACGAUCAACUCGAUACUGGCGAACCAGAAGAAGAUCUUUCACGAAAGACUCAAAGUUCAUCUUGCGGAGCACAACACUCUGCAGGGUCUUACUCCCUGCCGGCCCCAUGUACUUGAUCACGCCCUGCAACAGAGGAUUGAGCAUCA
B16: chr12:70905630:70905631:-_ENSMUSG00000034761_ENSMUST00000110570|mus_mus|motif|central (ssRNA)
RNA: GGGAGUUCUACAGUCCGACGAUCUAAGGCAACCCUGUAUGAAACUGUCGUAAAAUAUUCUGUUAAGGGAAGCUGUAUGUGCGGGACCUCCAACACGCCGCCAGGAACCCCCAAAGCACUACUCUGAGAAGGUAAACAACAUUUCAACAGAGGAUUGAGCAUCA
B17: chr1:46159212:46159213:+_ENSG00000159596_ENST00000372025|hu_mus|hu_hu_hu_mus_True|18_28 (ssRNA)
RNA: GGGAGUUCUACAGUCCGACGAUCUCUGAUCCCUCCCAAGAAAGCUAGGAAACCGGCUCCAUAAGCCAUCUGAGUGAAAGCUAGGACGGGGAUAUAAGACUUUGUUAUCAGCAUGACCAGUGGUGGAGCAGUAAAGGGGAUUAACAACAGAGGAUUGAGCAUCA
B18: chr1:150802451:150802452:-_ENSG00000143437_ENST00000358595|hu_mus|FALSE|FALSE (ssRNA)
RNA: GGGAGUUCUACAGUCCGACGAUCGGCCACUAGGCAGAAUUUGCUCCCCUGGCCAGCCUCUGGGUCAUCAUCUGGGAGGGAGACACCUGCUGGUGGCCAGGCCUUGAUGUAGCCUGUGCAGUGGACUACCACAAAGUGAGGUUCCAACAGAGGAUUGAGCAUCA
B19: chr12:39756943:39756944:-_ENSG00000139116_ENST00000544797|hu_mus|hu_hu_hu_mus_False|68_68 (ssRNA)
RNA: GGGAGUUCUACAGUCCGACGAUCGGUUUGGCUGUUACCCCCAAGGGAAUCCUGCAAGAGUCUUGUCAGCUUGGAAUCUCUGUAAGGGACAUGGGUGGCUCUCUUGCUCUUGUCCCCCAAGGCGCUGAUUACAUUCCCAAGAGCCAACAGAGGAUUGAGCAUCA
B20: chr10:105151994:105151995:-_ENSG00000173915_ENST00000309579|hu_mus|FALSE|FALSE (ssRNA)
RNA: GGGAGUUCUACAGUCCGACGAUCUUCAAAAUCCAUUUAUGUUGCUUUCACAGCUGGAGUUUUCUUAGGCCUUAACUUGAAGUAUAAGACCAGCAAAGCAAUGCCUCCAUAUGUGGCCAGGACACAAUUCAUUCUACCUGUGAGCAACAGAGGAUUGAGCAUCA
B21: 89581173_89583440_721_3pUTR_ENSMUSG00000042572_ENSMUST00000038356|mouse|control|control (ssRNA)
RNA: GGGAGUUCUACAGUCCGACGAUCGUUCUCUUUUCCGAUGCCAUCAUCUUCAGACUUCUUGCCCUCGGCUGGCUCUUCCUCUUUCAUUUCAUAGUGAUCUAGGUCUUCUGUAUCCUCAGGCAUCUCUUCAUCUUCAUCUUCUGACAACAGAGGAUUGAGCAUCA
B22: chr8:38095079:38095080:+_ENSG00000085788_ENST00000520272|hu_hu|motif|central (ssRNA)
RNA: GGGAGUUCUACAGUCCGACGAUCAGAUUCCAGUUUCUUUUUCCAUUCAUCCAAAGUUACAGCAAGCAUGUAAGUUUCCUCGGAAACUUGGCUGAAGCUCUCCGAGUAGGGAACAUACUUAUUGUCUUUGUCCCCCUUGUAAAACAACAGAGGAUUGAGCAUCA

target: T1, UNK ZnF1-3 (human, UniProt Q9C0B0 31-174); assay: nsRBNS (natural sequence RNA bind-n-seq); RBNS binding buffer (assumed for nsRBNS): 25 mM Tris pH 7.5, 150 mM KCl, 3 mM MgCl2, 0.01% Triton X-100, 500 ug/ml BSA, 20 U/ml SUPERase-In, 4 C; UNK is unkempt and MSI1 is Musashi-1; names of the RNAs are library labels; protein concentration not given here; high values mean tight binding
T1 sequence: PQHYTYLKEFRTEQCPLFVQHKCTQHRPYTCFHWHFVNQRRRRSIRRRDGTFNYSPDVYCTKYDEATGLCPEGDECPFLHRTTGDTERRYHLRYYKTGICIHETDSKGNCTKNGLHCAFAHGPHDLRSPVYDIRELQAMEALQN

| Binder | binding signal |
| --- | --- |
| B1 | 1.09 enrichment R |
| B2 | 0.479 enrichment R |
| B3 | 0.421 enrichment R |
| B4 | 0.384 enrichment R |
| B5 | 1.3 enrichment R |
| B6 | 1.77 enrichment R |
| B7 | 1.76 enrichment R |
| B8 | 0.818 enrichment R |
| B9 | 0.25 enrichment R |
| B10 | 0.697 enrichment R |
| B11 | 0.959 enrichment R |
| B12 | 1.45 enrichment R |
| B13 | 0.968 enrichment R |
| B14 | 0.734 enrichment R |
| B15 | 0.841 enrichment R |
| B16 | 1.31 enrichment R |
| B17 | 1.68 enrichment R |
| B18 | 0.835 enrichment R |
| B19 | 0.693 enrichment R |
| B20 | 0.745 enrichment R |
| B21 | 0.412 enrichment R |
| B22 | 0.589 enrichment R |
